Experimental data: the supplement of paper PMC10126150
Sequences with one replicate were seen in a single cluster, so their values are uncertain.

System: ATP
Assay: switch fluorescence ratio, 500 uM ATP over buffer (Cy3 cluster intensity, sum of 5 cycles each) (fold (ratio)); higher = stronger signal-on switching upon ATP binding; sequences stand for … in TCGTCGGCAGCGTCAGATGTGTATAAGAGACAGTTTTTTTTTTTTTTTTTTTTTTTTT…TC
Settings: aptamer strand: ATP DNA aptamer (quencher-CACCTGGGGGAGTATTGCGGAGGAAGG + anchor), 100 nM annealed; ATP concentration: 500 uM; one replicate
In short: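 Per cluster, summed Cy3 intensity from the target cycles was divided by that from the buffer cycles to give the fluorescence ratio, then averaged per switch-domain sequence. Clusters outside 100-1000 RFU were excluded. The Cy3-labelled switching-strand clusters, on a modified Illumina MiSeq flow-cell, were annealed to 100 nM quencher-labelled ATP aptamer and imaged in selection buffer, then after 15 min with 500 uM ATP at 22 °C, for five cycles with NaOH stripping and re-annealing between them.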
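Further: ATP exposure 15 min at 22 °C before imaging.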

## TTAAGGCGTG
  switch fluorescence ratio: 1

## CATAAATAGC
  switch fluorescence ratio: 1.07

## CTCGCCTTTC
  switch fluorescence ratio: 1.51

## TCGTGGGCGT
  switch fluorescence ratio: 0.98

## AGGAGAGTGT
  switch fluorescence ratio: 0.965

## TATGGCAGAC
  switch fluorescence ratio: 1.14

## TGAATTCCTA
  switch fluorescence ratio: 0.973

## CAACCCAACA
  switch fluorescence ratio: 1.05

## CTATTTTCCG
  switch fluorescence ratio: 0.984

## AATAAGTGCA
  switch fluorescence ratio: 0.961

## TATGCCGAAT
  switch fluorescence ratio: 0.985

## CGACAATGT
  switch fluorescence ratio: 1.12

## CCAGTTTGTC
  switch fluorescence ratio: 0.947

## TTTCGTCGA
  switch fluorescence ratio: 1.01

## CGAACCTAGA
  switch fluorescence ratio: 1.02

## TGACAGGAGA
  switch fluorescence ratio: 1.06

## GTGGTATTGC
  switch fluorescence ratio: 0.986

## ATGTGGGATG
  switch fluorescence ratio: 0.974

## CGATTTAATC
  switch fluorescence ratio: 0.99

## GTTACTCATT
  switch fluorescence ratio: 1.17

## GTGCATGAGC
  switch fluorescence ratio: 1.04

## CGAAGCGGAG
  switch fluorescence ratio: 1.21

## GTTGTAGTG
  switch fluorescence ratio: 0.981

## ACTCAGACGC
  switch fluorescence ratio: 1.37

## AGCAGGCCCA
  switch fluorescence ratio: 1.08

## ATATCGGTCC
  switch fluorescence ratio: 0.982

## ATAGAGAGTT
  switch fluorescence ratio: 0.974

## CGGAGTTCTC
  switch fluorescence ratio: 1.02

## GATCTGGGTC
  switch fluorescence ratio: 1.03

## TCGCTAACGA
  switch fluorescence ratio: 1.18

## ATGAAACCAG
  switch fluorescence ratio: 1.03

## GACATGTAGA
  switch fluorescence ratio: 0.986

## CATCCCACAT
  switch fluorescence ratio: 1.58

## GCGAATCTCG
  switch fluorescence ratio: 1.02

## CAGCAATTGC
  switch fluorescence ratio: 1.15

## GTATGTCTGG
  switch fluorescence ratio: 0.947

## CGGTCCCGGT
  switch fluorescence ratio: 1.09

## CGAGTTTACA
  switch fluorescence ratio: 0.992

## TAGGGACGAA
  switch fluorescence ratio: 1.02

## TCTGCAACTT
  switch fluorescence ratio: 1.15

## AGTTACCAGT
  switch fluorescence ratio: 1.01

## CTGTAAATGT
  switch fluorescence ratio: 1.04

## TGCGTCGAG
  switch fluorescence ratio: 0.996

## TCGTCGCCCG
  switch fluorescence ratio: 1.02

## TCGCGTCATT
  switch fluorescence ratio: 0.982

## TGCCCCAAGG
  switch fluorescence ratio: 1.04

## CACGTTTACA
  switch fluorescence ratio: 1.31

## ACGAGCGAC
  switch fluorescence ratio: 1.83

## TCAATGTCTG
  switch fluorescence ratio: 1.02

## TCAGCCTGAC
  switch fluorescence ratio: 2.25

## CTTAGGGGAA
  switch fluorescence ratio: 1

## TTTGTTGGAG
  switch fluorescence ratio: 0.981

## TTACCCTCCT
  switch fluorescence ratio: 1.17

## GAAAGAAAAG
  switch fluorescence ratio: 0.96

## CGGATAGGTA
  switch fluorescence ratio: 0.982

## ATGTACCCTA
  switch fluorescence ratio: 1.1

## TGTGTCGACG
  switch fluorescence ratio: 1.02

## AAGTATGG
  switch fluorescence ratio: 1.01

## TGAGGTCAAT
  switch fluorescence ratio: 1.02

## GGAGGTTGC
  switch fluorescence ratio: 0.962

## TTCCCCTACC
  switch fluorescence ratio: 1.18

## GCTGACATTA
  switch fluorescence ratio: 1.03

## CCTAGTCCTC
  switch fluorescence ratio: 1.01

## TCGAGACCGA
  switch fluorescence ratio: 1.05

## GGATGGGAAT
  switch fluorescence ratio: 0.989

## GAATACGCGT
  switch fluorescence ratio: 0.984

## GATCAACAGC
  switch fluorescence ratio: 1.01

## TCGGCGCTCG
  switch fluorescence ratio: 0.965

## GAGTGAGTG
  switch fluorescence ratio: 0.968

## GTTTGCGTTT
  switch fluorescence ratio: 1.12

## TCGCTTGACC
  switch fluorescence ratio: 1.07

## GGCGGAGCGG
  switch fluorescence ratio: 0.98

## TTTTGGAGAC
  switch fluorescence ratio: 0.975

## TAATATCCTG
  switch fluorescence ratio: 1

## TCCAATCTTC
  switch fluorescence ratio: 1.01

## GTTCCGATAT
  switch fluorescence ratio: 1.01

## AGCTTTAGAG
  switch fluorescence ratio: 1.01

## ACCGGCGAAT
  switch fluorescence ratio: 1.04

## CGCCCGGTGG
  switch fluorescence ratio: 0.987

## ACATGATAAG
  switch fluorescence ratio: 1.02

## CTTAAGGGA
  switch fluorescence ratio: 1.04

## GGAACTACGG
  switch fluorescence ratio: 1.04

## ACCGATAAGC
  switch fluorescence ratio: 1.14

## AACTCTTCTG
  switch fluorescence ratio: 1

## GGTCTTGTGT
  switch fluorescence ratio: 0.986

## AGTCACTCAG
  switch fluorescence ratio: 1.07

## CAAGGACCG
  switch fluorescence ratio: 0.978

## GAGATGATGG
  switch fluorescence ratio: 1.02

## TGCAATATGA
  switch fluorescence ratio: 3.98

## ATATGGGCC
  switch fluorescence ratio: 1.01

## ACCGTGCATT
  switch fluorescence ratio: 1.04

## ATGGTATACA
  switch fluorescence ratio: 1

## TAACCTTCAT
  switch fluorescence ratio: 2.57

## ACAAGTGCTA
  switch fluorescence ratio: 1.01

## CCGAGGCCGG
  switch fluorescence ratio: 1.13

## TTGTGATCAG
  switch fluorescence ratio: 1.01

## TCAACCTGCG
  switch fluorescence ratio: 1.16

## ATGGCAAGGC
  switch fluorescence ratio: 1.31

## TTGTTTGAGA
  switch fluorescence ratio: 0.97

## ATGGTAGGT
  switch fluorescence ratio: 1.01
